Data set [1] can be described thus: thermo-stability evaluation by ELISA. It is filed as physicochemical. The settings on record: −80° C., 4° C., 25° C., 40° C., 2 months. As to the method: All antibodies are treated for one month up to two months at −80° C., 4° C., 25° C., and 40° C.
In addition, four purified antibodies (including chimeric antibody, VH3+VL3, VH4+VL2, VH4+VL3 humanilized antibodies) and nine supernatants form HEK293 cells expressing each humanized were selected for stability evaluation by ELISA.
Background: In an ELISA, binding on a coated surface is turned into a signal by an enzyme label.

For a further data set, the target named is BSA-Succinic acid (Bos taurus, UniProt P02769). The experiment in a line: SPR (Biacore 8K) affinity measurement. To be noted: purified IgG, 1:1 interaction model. Type of data set: binding. As to the method: To construct and produce the chimeric 6G10F6 antibody and humanized antibody, the DNA sequences encoding humanized IgG heavy and light chains are synthesized and inserted into pCDNA3.4 vector to construct the expression plasmids of full-length IgGs (as shown in FIG. 11). Forty humanized antibodies are expressed in HEK293 cell culture, and then the cells are spun down. The supernatants are conducted for expression evaluation by ELISA. Binding confirmation and affinity ranking are tested by Surface Plasmon Resonance (SPR) using Biacore 8K. […] And the primary antibodies are goat anti-human IgG-HRP (GenScript, Cat. No. A00166) and goat anti-human Lambda-HRP (SouthernBiotech, Cat. No. 2070-05) respectively. The affinity and kinetics of chimeric antibody to BSA-Succinic acid is summarized in FIG. 12B, and the sensor-grams are shown in FIG. 12C. Express antibodies plus the parental antibody are performed for affinity ranking. The clones without binding with the target are highlight in grey color.
Chain of BSA-Succinic acid (P02769 25-607): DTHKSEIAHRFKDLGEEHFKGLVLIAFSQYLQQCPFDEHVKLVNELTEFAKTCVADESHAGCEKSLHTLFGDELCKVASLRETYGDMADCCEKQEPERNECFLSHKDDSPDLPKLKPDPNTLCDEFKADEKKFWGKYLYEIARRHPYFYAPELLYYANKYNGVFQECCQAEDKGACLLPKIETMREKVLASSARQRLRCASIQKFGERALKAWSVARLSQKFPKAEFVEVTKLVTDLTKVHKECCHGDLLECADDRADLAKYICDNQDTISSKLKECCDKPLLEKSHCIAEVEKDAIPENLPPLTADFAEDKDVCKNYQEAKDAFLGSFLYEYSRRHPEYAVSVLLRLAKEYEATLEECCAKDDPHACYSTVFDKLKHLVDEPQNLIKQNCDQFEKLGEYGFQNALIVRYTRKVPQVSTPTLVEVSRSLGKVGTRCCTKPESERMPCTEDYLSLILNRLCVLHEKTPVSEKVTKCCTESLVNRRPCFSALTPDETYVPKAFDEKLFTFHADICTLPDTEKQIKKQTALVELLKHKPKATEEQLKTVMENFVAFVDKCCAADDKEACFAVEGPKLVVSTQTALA
Based on the affinity ranking results, top 3 humanized antibodies (VH3+VL3, VH4+VL2, VH4+VL3) are expressed and purified according to GenScript's SOP. Evaluating from the SDS-PAGE, the purity of humanized IgGs are about 85% (FIG. 14A). The top 3 purified antibodies are further selected for affinity measurement under different concentrations. Binding data of each antibody is processed and fitted to 1:1 interaction model using Biacore 8K evaluation software. All experimental data could be well fitted to the model (FIG. 15A).
Background: In SPR one partner is held on a chip, and binding of the other changes the refractive index at the surface.

Positions count from the first letter of the chain named.

B1: VH3+VL3: humanized 6G10F6 antibody, VH3 SEQ ID NO: 11, VL3 SEQ ID NO: 16 (antibody)
heavy: MGWSCIILFLVATATGVHSQVQLQESGPGLVKPSQTLSLTCTVSGYSITSDYAWNWFRQPPGKKLEWMGYTSYSGSTSYNPSLKSRVTISRDTSKNQISLKLSSVTAADTATYYCAREVTTFGYFDYWGQGTLVTVSSASTKGPSVFPLAPCSRSTSESTAALGCLVKDYFPEPVTVSWNSGALTSGVHTFPAVLQSSGLYSLSSVVTVPSSSLGTKTYTCNVDHKPSNTKVDKRV[letters of human IgG4 Fc left out]
light: MGWSCIILFLVATATGVHSQTVVTQEPSLTVSPGGTVTLTCRSSTGAVTTSNYANWFQQKPGQAPRGLIGGTSNRAPGVPARFSGSLLGDKAALTLSGVQPEDEAEYFCALWYSTHYVFGTGTKVTVLGQPKAAPSVTLFPPSSEELQANKATLVCLISDFYPGAVTVAWKADSSPVKAGVETTTPSKQSNNKYAASSYLSLTPEQWKSHRSYSCQVTHEGSTVEKTVAPTECS
modifications: VH3 of the humanized 6G10F6 antibody; VL3 of the humanized 6G10F6 antibody
Consider B1, for which the “binding to antigen after temperature treatments” value (from here on “binding to antigen”) in data set [1] is recorded as “bound to antigen strongly”. Further, in the data set with BSA-Succinic acid, the antigen-binding affinities result is reported as “retain comparable antigen-binding affinities to the parent chimeric antibody”.

B2: VH4+VL2: humanized 6G10F6 antibody, VH4 SEQ ID NO: 12, VL2 SEQ ID NO: 15 (antibody)
heavy: B1 heavy with R91V, I98F, T112V
light: B1 light with G78W, V79T, D90G
modifications: VH4 of the humanized 6G10F6 antibody; VL2 of the humanized 6G10F6 antibody
Turning to B2, the “binding to antigen” value in data set [1] was “bound to antigen strongly”. Further, the antigen-binding affinities result in the data set with BSA-Succinic acid was “retain comparable antigen-binding affinities to the parent chimeric antibody”.

B3: VH4+VL3: humanized 6G10F6 antibody, VH4 SEQ ID NO: 12, VL3 SEQ ID NO: 16 (antibody)
heavy: B1 heavy with R91V, I98F, T112V
light: B1 light
modifications: VH4 of the humanized 6G10F6 antibody; VL3 of the humanized 6G10F6 antibody
With B3, the “binding to antigen” value in data set [1] is listed as “bound to antigen strongly”. In addition, the antigen-binding affinities result with BSA-Succinic acid is “retain comparable antigen-binding affinities to the parent chimeric antibody”.

The values above are taken from patent US12559574B2 (National Health Research Institutes, priority 2019, dated 2026).
